Results as given in article PMC10632493.
No constants are given. Whether binding was seen depends on the method and setting. Binding seen in cells or lysates may run through a third protein. Some entries that bind do so weakly or less than the wild type. For some assays here: Where a sequence is shown, tags or fusion partners need not be part of it.

Key:
Assay in all cases: co-IP; TNKS1/2 DKO HEK293T cells cotransfected with TNKS1 (or MycSAMPARP) and Flag plasmids; TNE lysate; anti-Flag beads 2 h at 4 °C; immunoblot
[1] = target: FlagRNF166 Di19 mutant D1* (C152R) (UniProt Q96A37)
[2] = target: T1, Flag-tagged RNF138 (UniProt Q8WVD3)
T1 sequence: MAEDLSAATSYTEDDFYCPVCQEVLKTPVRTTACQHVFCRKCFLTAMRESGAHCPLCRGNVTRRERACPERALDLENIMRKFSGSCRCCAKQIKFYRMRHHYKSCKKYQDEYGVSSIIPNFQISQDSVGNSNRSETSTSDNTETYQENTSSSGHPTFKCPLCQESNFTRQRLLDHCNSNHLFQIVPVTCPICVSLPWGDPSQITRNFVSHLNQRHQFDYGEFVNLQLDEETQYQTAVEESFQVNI

[3] = target: tagged HUWE1 (FlagHUWE1) (UniProt Q7Z6Z7)
[4] = target: Flag-tagged RNF146 (FlagRNF146) (UniProt Q9NTX7)
[5] = target: T2, Flag-tagged DTX4 (UniProt Q9Y2E6)
T2 sequence: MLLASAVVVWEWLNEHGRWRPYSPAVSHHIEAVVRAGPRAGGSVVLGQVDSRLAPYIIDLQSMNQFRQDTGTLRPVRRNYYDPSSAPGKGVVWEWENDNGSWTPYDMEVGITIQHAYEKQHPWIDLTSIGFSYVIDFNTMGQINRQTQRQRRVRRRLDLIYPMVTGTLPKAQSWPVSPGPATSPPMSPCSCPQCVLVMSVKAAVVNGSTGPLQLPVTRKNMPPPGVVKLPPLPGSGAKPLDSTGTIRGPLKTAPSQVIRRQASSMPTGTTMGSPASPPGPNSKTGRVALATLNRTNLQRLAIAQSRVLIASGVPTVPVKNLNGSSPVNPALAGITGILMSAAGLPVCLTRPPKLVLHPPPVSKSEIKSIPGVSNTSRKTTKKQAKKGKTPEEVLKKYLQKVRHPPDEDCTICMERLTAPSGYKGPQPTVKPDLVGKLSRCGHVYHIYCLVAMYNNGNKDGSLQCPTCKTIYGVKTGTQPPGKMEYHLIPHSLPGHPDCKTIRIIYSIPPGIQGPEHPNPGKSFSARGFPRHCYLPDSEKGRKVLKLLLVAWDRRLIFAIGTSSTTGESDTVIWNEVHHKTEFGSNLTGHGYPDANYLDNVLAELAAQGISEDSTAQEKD

[6] = target: T3, Flag-tagged DTX1 (UniProt Q86Y01)
T3 sequence: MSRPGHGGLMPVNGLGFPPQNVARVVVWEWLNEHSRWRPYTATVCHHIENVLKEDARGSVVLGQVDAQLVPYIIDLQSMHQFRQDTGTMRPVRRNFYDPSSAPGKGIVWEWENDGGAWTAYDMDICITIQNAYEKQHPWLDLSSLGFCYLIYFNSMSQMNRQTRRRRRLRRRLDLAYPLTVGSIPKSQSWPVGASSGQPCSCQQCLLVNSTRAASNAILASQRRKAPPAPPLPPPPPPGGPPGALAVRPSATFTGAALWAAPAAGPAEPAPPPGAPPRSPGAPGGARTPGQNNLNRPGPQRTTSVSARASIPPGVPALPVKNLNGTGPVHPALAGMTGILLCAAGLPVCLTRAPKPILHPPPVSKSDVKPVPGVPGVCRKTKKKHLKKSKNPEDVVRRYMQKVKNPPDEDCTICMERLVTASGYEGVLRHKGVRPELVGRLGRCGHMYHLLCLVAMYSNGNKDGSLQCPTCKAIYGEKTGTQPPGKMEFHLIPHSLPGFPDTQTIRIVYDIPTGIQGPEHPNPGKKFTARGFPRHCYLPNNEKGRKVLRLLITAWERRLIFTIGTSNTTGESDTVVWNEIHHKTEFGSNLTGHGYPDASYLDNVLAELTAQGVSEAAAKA

[7] = target: Flag-epitope-tagged RNF166 (FlagRNF166) (UniProt Q96A37)
[8] = target: T4, Flag-tagged RNF125 (UniProt Q96EQ8)
T4 sequence: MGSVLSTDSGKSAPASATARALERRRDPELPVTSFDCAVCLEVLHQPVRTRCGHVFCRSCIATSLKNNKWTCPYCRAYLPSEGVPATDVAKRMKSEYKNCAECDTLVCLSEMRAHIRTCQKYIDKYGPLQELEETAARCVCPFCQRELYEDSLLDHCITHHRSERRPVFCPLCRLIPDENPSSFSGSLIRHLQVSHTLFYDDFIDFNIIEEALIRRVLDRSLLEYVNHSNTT

[9] = target: Flag-tagged TRIP12 (pcDNA3.1-Flag-TRIP12-WT) (UniProt Q14669)
[10] = target: FlagRNF166 C2HC mutant (C98G; C*) (UniProt Q96A37)
[11] = target: FlagRNF166 Di19 mutant D2* (C182G) (UniProt Q96A37)

binding [1]: no binding | binding [2]: binds | binding [3]: binds | binding [4]: binds | binding [5]: binds | binding [6]: binds | binding [7]: binds | binding [8]: binds | binding [9]: no binding | binding [10]: binds | binding [11]: no binding
Substance: TNKS1 (transfected, TNKS.WT) (from UniProt O95271 1-1327) (enzyme)
